Assay results reported in PubChem BioAssay AID504937 (National Center for Advancing Translational Sciences (NCATS), 2011).
In all, about 340,000 compounds went through this assay and about 20 (0.006%) were called active. This list was built around the results that the source calls inconclusive (neither active nor inactive); the mix of calls is not that of the screen. Calls follow the shape of the dose curve; as a rule, active = well fitted inhibition curve with a large enough effect; inconclusive = small, poorly fitted or top-dose-only effect; inactive = no such curve, though single readings can be large or run the other way. Where the call is inconclusive, the potency comes from a doubtful curve fit.

target: Sphingomyelin phosphodiesterase (Homo sapiens) (UniProt P17405); assay: Inhibitors of Secretory Acid Sphingomyelinase (S-ASM): qHTS; details: placental ASM, HMU-PC fluorogenic substrate (series up to 57.5 µM), 60 min; activity change, negative = inhibition: at the top concentration
Outline: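 Human placenta-derived ASM enzyme was preincubated with compound for 10 minutes at room temperature, then given fluorogenic substrate HMU-PC0 (9 uM final) for 60 minutes at 37 °C; a pH 10 stop preceded fluorescence reading at Ex 386/Em 447 nm.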
Potency is read from the fitted curve at half-maximal effect; tags tell the direction and shape of the fitted curve.

UniProt P17405, sequence (P17405 whole entry, looked up): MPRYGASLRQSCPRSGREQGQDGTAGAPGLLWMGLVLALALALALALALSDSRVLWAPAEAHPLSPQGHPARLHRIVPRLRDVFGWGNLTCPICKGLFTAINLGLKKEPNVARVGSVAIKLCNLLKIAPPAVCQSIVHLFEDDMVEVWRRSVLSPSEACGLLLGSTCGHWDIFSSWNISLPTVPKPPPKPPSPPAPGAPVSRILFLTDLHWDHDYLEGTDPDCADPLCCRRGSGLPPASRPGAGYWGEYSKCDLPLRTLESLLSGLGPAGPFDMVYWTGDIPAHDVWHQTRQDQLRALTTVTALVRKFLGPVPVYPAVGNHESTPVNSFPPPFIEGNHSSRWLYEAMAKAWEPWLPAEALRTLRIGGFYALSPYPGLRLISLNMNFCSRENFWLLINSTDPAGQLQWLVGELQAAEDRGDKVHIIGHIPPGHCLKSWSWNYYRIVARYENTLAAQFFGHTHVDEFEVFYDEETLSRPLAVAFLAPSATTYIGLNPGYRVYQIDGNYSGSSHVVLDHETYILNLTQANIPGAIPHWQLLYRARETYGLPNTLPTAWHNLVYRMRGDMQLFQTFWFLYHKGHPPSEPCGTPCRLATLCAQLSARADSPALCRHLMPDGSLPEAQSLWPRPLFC

With CC(C)CC(C(=O)O)N1C(=O)C2C3CC(C2C1=O)C1C(c2ccccc2)c2sc(=O)[nH]c2SC31 (configuration not stated) as the compound, how does the “activity change, negative = inhibition” value read?
Its value is inactive: 9.1%.

For Cc1noc(C)c1C(=O)Nc1sc(C)c(-c2ccccc2)c1C#N, which “activity change, negative = inhibition” value is on record?
Its value is inactive: 1.16%.

How did the Potency turn out when CC(C)(CC(=O)N1CCN(c2ccc(Cl)cc2)CC1)CC1=NS(=O)(=O)c2ccccc2N1 was run?
The Potency was inconclusive: 112 µM [inhibitor, partial curve, poor fit].

COc1ccc(OC)c(Nc2nc(-c3cccs3)cs2)c1 was tested. Which Potency did it give?
The Potency was inconclusive: 126 µM [inhibitor, partial curve, poor fit].

COc1ccc(NC(=O)CCCOc2ccc(Cl)c(C)c2)cc1S(=O)(=O)N1CCOCC1 was tested. Which Potency did it give?
Its Potency is inconclusive: 447 µM [inhibitor, partial curve, poor fit].

For CCN1/C(=C/C(C)=C/c2sc3ccccc3[n+]2CC)Sc2ccccc21, which Potency is on record?
The Potency was inconclusive: 112 µM [inhibitor, partial curve, poor fit].

With COC(=O)c1cc2sccc2n1Cc1nc(-c2ccc(OC)cc2)oc1C as the compound, how does the Potency read?
The Potency was inconclusive: 501 µM [inhibitor, partial curve, poor fit].

How did the Potency turn out when CCCCOc1ccc(N=Nc2ccc(N)nc2N)cn1 was run?
The Potency was inconclusive: 100 µM [inhibitor, single point].

For COc1cccc(-c2nc(N3CCC(C)CC3)c3ccccc3n2)c1O, which Potency is on record?
Its Potency is inconclusive: 112 µM [inhibitor, partial curve, poor fit].

Which Potency does the source give for COc1cc(/C=C2\SC(=S)N(CCC(=O)Nc3cccc(O)c3)C2=O)cc(OC)c1OC here?
Its Potency is inconclusive: 70.8 µM [inhibitor, partial curve].

With COc1ccc2c(c1)c(=Cc1ccc(N(C)C)cc1)c1cc(-c3ccccc3)[n+](C)n12 as the compound, how does the Potency read?
The Potency was inconclusive: 70.8 µM [inhibitor, single point].

For Cc1ccnc(Sc2ccc([N+](=O)[O-])cn2)n1, which “activity change, negative = inhibition” value is on record?
Its value is inactive: 1.95%.

With COc1ccc(-c2oc3cc(O)c(OC)c(O)c3c(=O)c2OC)cc1O as the compound, how does the “activity change, negative = inhibition” value read?
The value was inactive: -3.6%.

For Cc1csc2nc(SCC(=O)N3CCN(c4ccccc4)CC3)[nH]c(=O)c12, which Potency is on record?
Its Potency is inconclusive: 89.1 µM [inhibitor, single point].

How did the Potency turn out when Cc1cc(C)nc(N=Nc2c(O)n(Cc3ccc(Cl)cc3)c3ccccc23)n1 was run?
The Potency was inconclusive: 100 µM [inhibitor, partial curve, poor fit].

For CCCCCCCCCCCCC/C=C/[C@@H](O)[C@@H](N)CO, which Potency is on record?
Its Potency is inconclusive: 70.8 µM [inhibitor, partial curve, poor fit].

How did the Potency turn out when CCCCC1(C)OC(=O)C(=Cc2ccc(-c3ccc(Cl)c(C(=O)O)c3)o2)C(=O)O1 (configuration not stated) was run?
The Potency was inconclusive: 100 µM [inhibitor, partial curve, poor fit].
